Results on 55 compounds are retold here after publication PMC4336329 (PLoS ONE, 2015).

Hit rate of the full screen: of about 310,000 compounds, about 14,000 (4.5%) showed an effect of 50% or more. The effect is printed as a negative number. This is one part of the list.
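Also: peak tail current of the secondary pulse compared with the same well before compound.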

For the test, the target named is human ether-à-go-go-related gene (hERG) potassium channel (human, UniProt Q12809). The test is described as follows: primary screen, population patch clamp on CHO cells stably expressing hERG.
Sequence of human ether-à-go-go-related gene (hERG) potassium channel (Q12809 whole entry, looked up): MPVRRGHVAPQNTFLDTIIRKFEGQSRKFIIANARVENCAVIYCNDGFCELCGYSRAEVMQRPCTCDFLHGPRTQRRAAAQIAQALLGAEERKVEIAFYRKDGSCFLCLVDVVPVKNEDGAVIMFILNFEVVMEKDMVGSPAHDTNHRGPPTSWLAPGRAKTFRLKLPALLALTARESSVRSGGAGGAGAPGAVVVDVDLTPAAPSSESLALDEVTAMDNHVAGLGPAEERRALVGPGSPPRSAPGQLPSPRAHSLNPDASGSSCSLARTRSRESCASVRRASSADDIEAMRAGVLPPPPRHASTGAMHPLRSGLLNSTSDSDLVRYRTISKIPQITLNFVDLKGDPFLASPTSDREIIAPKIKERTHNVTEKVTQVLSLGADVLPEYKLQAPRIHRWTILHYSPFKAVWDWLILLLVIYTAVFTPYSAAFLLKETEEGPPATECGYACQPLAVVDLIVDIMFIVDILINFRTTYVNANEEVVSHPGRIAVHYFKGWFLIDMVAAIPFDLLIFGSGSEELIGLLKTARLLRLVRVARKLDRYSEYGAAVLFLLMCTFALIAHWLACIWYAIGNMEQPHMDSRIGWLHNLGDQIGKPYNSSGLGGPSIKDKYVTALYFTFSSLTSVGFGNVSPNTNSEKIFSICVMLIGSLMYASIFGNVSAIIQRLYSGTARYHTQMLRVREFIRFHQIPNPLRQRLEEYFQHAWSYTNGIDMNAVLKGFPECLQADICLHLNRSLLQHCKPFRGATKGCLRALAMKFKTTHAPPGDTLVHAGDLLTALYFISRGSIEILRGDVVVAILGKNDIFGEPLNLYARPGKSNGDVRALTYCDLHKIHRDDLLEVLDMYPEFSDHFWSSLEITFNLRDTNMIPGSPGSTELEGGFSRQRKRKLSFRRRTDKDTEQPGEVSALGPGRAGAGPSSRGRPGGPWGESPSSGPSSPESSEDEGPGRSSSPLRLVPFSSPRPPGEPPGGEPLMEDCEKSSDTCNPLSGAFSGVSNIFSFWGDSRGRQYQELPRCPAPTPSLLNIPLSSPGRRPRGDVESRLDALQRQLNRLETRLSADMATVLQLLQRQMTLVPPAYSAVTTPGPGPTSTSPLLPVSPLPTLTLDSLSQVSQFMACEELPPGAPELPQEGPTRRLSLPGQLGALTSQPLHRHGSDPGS
Regarding `Cn1c(CNC(=O)C(Cc2ccccc2)NC(=O)c2ccccc2F)cc(=O)n(C)c1=O` (stereo not shown), the “hERG current change (%, negative = inhibition) at 10uM” value amounted to 3.58%. Turning to `Nc1cc2c(cc1[N+](=O)[O-])OCO2`, the “hERG current change (%, negative = inhibition) at 10uM” value was determined as 18.6%. As for `CC[C@]1(c2ccccc2OC)ON(c2ccccc2C(F)(F)F)C1=O`, the figure is 20.3%.

Consider `Cc1sc2ncnc(OCC(=O)N3CC(=O)Nc4ccccc43)c2c1C`, for which the “hERG current change (%, negative = inhibition) at 10uM” value was -1.93%.

Take `Cc1csc(SCc2c(C(=O)O)oc3ccccc23)n1`: the “hERG current change (%, negative = inhibition) at 10uM” value was 20.2%.

Turning to `CCOC(=O)c1c(NC(=O)COC(=O)c2ccccn2)sc2c1CCC2`, the “hERG current change (%, negative = inhibition) at 10uM” value is on record as -0.64%. As for `OC(COCc1cccs1)CN1CCN(c2ccccc2Cl)CC1` (stereo not shown), the figure is -71%; as for `CC(=O)c1ccc2c(c1)OCCOCCOc1ccccc1OCCOCCO2`, -74.4%; as for `Cc1cccc(C(=O)Nc2ccc3c(c2)ncn3C)c1`, 7.95%. The result for `Cc1ccccc1-n1nc2c(c1NC(=O)c1cc3ccccc3oc1=O)CS(=O)(=O)C2` reads -6.93%; that for `CC(=O)N1CC(C)Sc2ccc(S(=O)(=O)NCc3ccccc3Cl)cc21` (stereo not shown), -8.78%; that for `C[C@@H]1CC[C@@]2(OC1)O[C@H]1C[C@H]3[C@@H]4CC=C5C[C@@H](O)[C@H](O)C[C@]5(C)C4CC[C@]3(C)[C@H]1[C@@H]2C` (stereo partly shown), 25.7%. With `CC(C)(C)c1cccc(/C=N/O)c1O`, the “hERG current change (%, negative = inhibition) at 10uM” value is recorded as -6.27%. The result for `CC1(C(=O)NC(=S)NNC(=O)c2ccncc2)CCCCC1` reads 11%. As for `CCOC(=O)c1c(-c2cccs2)csc1NC(=O)C(C)(C)C`, the figure is 4.02%; as for `COc1ccc(Cl)cc1N1C(=O)/C(=C\c2sccc2C)N=C1SCC(=O)NC1CC1`, 2.84%. The result for `O=C(CNC(=O)c1ccncc1)N/N=C/c1ccc(O)cc1O` reads 20.5%. As to `CCOC(=O)c1ccc(Nc2cnc3ccccc3n2)cc1`, the “hERG current change (%, negative = inhibition) at 10uM” value worked out at 11.4%. As for `C=C1CC[C@H](O)C/C1=C/C=C1\CCC[C@]2(C)[C@@H]([C@H](C)/C=C/[C@H](C)C(C)C)CC[C@@H]12`, the figure is -1.53%; as for `COc1ccc(NCc2nnc(SCC(=O)Nc3cccc(C)c3)o2)cc1`, 6.42%; as for `Cc1nnc(NC(=O)C2CCCN2S(=O)(=O)c2ccc(Cl)cc2)s1` (stereo not shown), -23.8%. As for `O=c1[nH]c(NCCCO)nc2c1C1(CCCC1)Cc1ccccc1-2`, the figure is -7.54%; as for `CC1CCCCN1C(=O)CSc1nnc(-c2ccc(Cl)s2)o1` (stereo not shown), -33.8%.

In the case of `CC(OC(=O)c1snc(C(=O)NC2CCCCC2)c1N)C(=O)NC(C)(C)C` (stereo not shown), the “hERG current change (%, negative = inhibition) at 10uM” value was 1.54%.

With `O=C(COC(=O)c1ccc(S(=O)(=O)C(F)F)cc1)Nc1ccccc1C(=O)NC1CC1`, the “hERG current change (%, negative = inhibition) at 10uM” value is recorded as 11.5%. As for `Cc1cc(NC(=O)Nc2cc(C)nn2-c2ccccc2)n(-c2ccccc2)n1`, the figure is -5%; as for `CCC(C)(C)n1nnnc1C(c1cc2cccc(C)c2[nH]c1=O)N1CCN(C(=O)c2ccco2)CC1` (stereo not shown), -21.5%; as for `N#CC1=C(N)C2=CCCC[C@H]2[C@H](c2cccc(F)c2)C1(C#N)C#N`, -9.57%. As for `O=C(COC(=O)CCCN=C1NS(=O)(=O)c2ccccc21)NC(=O)NC1CCCC1`, the figure is 18.3%; as for `COc1ccccc1NS(=O)(=O)c1cccc(C(=O)NCC(c2ccco2)N2CCCCC2)c1` (stereo not shown), -23.4%; as for `Cc1ccc(-c2ccccc2NC(=O)C2C3C=CC(C3)C2C(=O)O)o1` (stereo not shown), -4.9%. The result for `O=S(=O)(CCSc1nc2ccccc2o1)c1nc2ccccc2s1` reads -5.57%; that for `C=CCNC(=O)COc1c(C)ccc(C)c1C`, 0.626%; that for `CC1CCc2c(C(=O)NCc3ccccn3)csc2C1` (stereo not shown), 3.13%. As for `CC(C)C[C@H](NC(=O)C1CCN(S(=O)(=O)c2ccccc2)CC1)C(=O)NCc1cccnc1`, the “hERG current change (%, negative = inhibition) at 10uM” value is -2.56%. Take `COc1ccc(NC(=O)CCNC(=O)Cn2cnc3ccccc3c2=O)c(OC)c1`: the “hERG current change (%, negative = inhibition) at 10uM” value is -5.59%. As for `Cc1cc(S(=O)(=O)N2CCCC(N(C)CCc3ccccn3)C2)c(C)cc1Cl` (stereo not shown), the figure is -71.6%. The result for `COc1ccc(CCNC(=O)CCCCCN2C(=O)c3ccccc3C2=O)cc1` reads -28.6%; that for `COC(=O)c1cc(NC(=O)c2c(-c3ccccc3)noc2C)ccc1N1CCOCC1`, -6.24%; that for `Cc1ccc2c(c1)c1c3n2CCN(CC#N)C3CCC1` (stereo not shown), 2.24%. The result for `Cc1ccccc1CSc1nsc(N)n1` reads -10.5%. `C=CCn1c(=NC(=O)c2cc(Cl)sc2Cl)sc2cc(S(N)(=O)=O)ccc21`: the “hERG current change (%, negative = inhibition) at 10uM” value is 18.6%.

Take `COc1ccc(C2(C(=O)Nc3cc(C)on3)CCOCC2)cc1`: the “hERG current change (%, negative = inhibition) at 10uM” value is recorded as -6.79%.

Consider `COc1ccc(CCNC(=O)/C(C#N)=C/c2ccc(OCC(=O)NCC3CCCO3)cc2)cc1OC` (stereo not shown), for which the “hERG current change (%, negative = inhibition) at 10uM” value came out at 11.7%. As for `C/C(=N/NC(=O)C1COc2ccccc2O1)c1ccc(Br)s1` (stereo not shown), the figure is 7.54%; as for `CCc1ccc(C(=O)CN2C(=O)NC(C)(CCc3ccccc3)C2=O)cc1` (stereo not shown), -7.68%. The result for `Cc1ccc(NC(=O)N2CCCC2C(=O)Nc2nnc(C(C)C)s2)cc1` (stereo not shown) reads 9.77%; that for `COc1ccc(S(=O)(=O)N2CCOCC2)cc1NC(=O)CN1CCN(C)CC1`, -0.248%. As for `COCCn1nnnc1CN1CCC(Cc2ccccc2)CC1.Cl`, the “hERG current change (%, negative = inhibition) at 10uM” value was -3.18%. Consider `O=C(CCN1C(=O)/C(=C\c2ccccc2)SC1=S)Nc1ccc(C(=O)O)cc1`, for which the “hERG current change (%, negative = inhibition) at 10uM” value was 15.6%. The result for `COc1ccc(NCC(=O)N/N=C/C(C)c2ccccc2)cc1` (stereo not shown) reads 0.596%; that for `O=S(=O)(c1ccc(Br)cc1)N1CCN(c2ccccc2)CC1`, 12.2%; that for `CCCc1nc2ccccc2c(=O)n1/N=C/c1ccc(O)c(O)c1`, -0.0772%. As to `CN(C)CCCn1c(=S)[nH]c2ccccc2c1=O`, the “hERG current change (%, negative = inhibition) at 10uM” value is -7.26%. The result for `CC1O[C@@H]2O[C@](O[C@H](C)CC[C@@H](C)O)(c3ccccc3)O[C@@H]2C[C@H]1O` (stereo partly shown) reads 13.4%.
